Results: PubChem BioAssay AID624417 (National Center for Advancing Translational Sciences (NCATS), 2012)
The whole screen tested about 410,000 compounds, of which about 6,400 (1.6%) were called active. This list was built around the results that the source calls inconclusive (neither active nor inactive); the mix of calls is not that of the screen. The call rests on the fitted dose curve; in most records, active means well fitted inhibition curve with a large enough effect; inconclusive means small, poorly fitted or top-dose-only effect; inactive means no such curve, though single readings can be large or run the other way. Where the call is inconclusive, the potency comes from a doubtful curve fit.

Target: Glucagon-like peptide 1 receptor (Homo sapiens) (UniProt P43220)
Sequence of UniProt P43220 (P43220 whole entry, looked up): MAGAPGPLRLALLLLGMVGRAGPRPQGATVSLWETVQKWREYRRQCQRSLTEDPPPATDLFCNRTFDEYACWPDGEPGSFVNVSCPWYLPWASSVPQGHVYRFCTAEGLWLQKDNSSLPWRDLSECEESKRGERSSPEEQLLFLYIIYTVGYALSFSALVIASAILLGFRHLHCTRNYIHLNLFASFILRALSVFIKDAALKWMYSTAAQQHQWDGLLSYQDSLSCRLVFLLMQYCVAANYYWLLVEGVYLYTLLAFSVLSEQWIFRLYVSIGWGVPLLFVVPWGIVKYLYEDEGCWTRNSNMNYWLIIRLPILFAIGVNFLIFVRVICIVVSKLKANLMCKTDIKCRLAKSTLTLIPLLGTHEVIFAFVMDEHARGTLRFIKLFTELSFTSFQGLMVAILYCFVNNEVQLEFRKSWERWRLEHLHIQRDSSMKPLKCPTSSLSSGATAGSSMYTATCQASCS
Experiment: qHTS of GLP-1 Receptor Inverse Agonists (Inhibition Mode); further: nearly all actives have a fitted effect of over 55% in size
Conditions: HEK293 GLP-1R CRE-luciferase, luminescence, 24 h, GLP-1R form is constitutively active; activity change, negative = inhibition: at 38.3 µM (top of the series) unless noted
How it was run: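 Assay principle: reduced luminescence from a cAMP-responsive reporter in HEK293 cells co-expressing a constitutively active GLP-1R. Conditions: 24 hr compound incubation, 37 deg C, 5% CO2.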
On the % scale 0 is the no-effect control and ±100 the full control effect; potency means the concentration at half of the fitted maximal effect; tags describe the fitted curve by direction and shape.

Potency, inactive:
CCCCNC(=O)C1CCN(C/C(C)=C/c2ccccc2)CC1
CC(=O)Oc1ccc(Cn2c(C)c(C(=O)N(C)Cc3ccc(F)cc3)sc2=O)cc1
O=[N+]([O-])c1ccccc1Oc1ccc(C(F)(F)F)cn1
O=C(Cn1ncc2c(=O)oc3ccccc3c21)N1CCN(c2ccc(Cl)cc2)CC1
COc1ccc(-n2nc3c(N4CCC(C(=O)NCCc5ccccc5)CC4)nnc(C)c3c2C)cc1
CCn1c(-c2cc3ccccc3cc2O)n[nH]c1=S
O=C1CCCc2cc(S(=O)(=O)NCC3CCC(C(=O)NCc4ccc(F)cc4)CC3)ccc2N1 (centres undefined)
Cc1ccc(CNC(=O)Cc2ccc(NC(=O)N3CCSc4ncccc43)cc2)cc1
CNS(=O)(=O)c1cn(CC(=O)N2CCN(c3ccc(C(C)=O)cc3)CC2)cc1S(=O)(=O)NC
CC1=C(C(=O)Nc2cccnc2)C(c2ccc(C)cc2)n2nc(SCc3ccccc3F)nc2N1 (centres undefined)
COc1cc2c(cc1OC)n(CC(=O)c1cc(C)ccc1C)c(=O)n1nc(CCn3nc(C)cc3C)nc21
CCc1cc2c(cc3c(=O)n(CCCC(=O)NCc4cccc(Br)c4)ncn32)s1
Cc1cc(Nc2ccc(F)cc2F)nc(-n2nc(C)cc2C)n1
Cc1cccc2c1N1C(=O)c3c(C(=O)O)cccc3C1CC2C (centres undefined)
CCOc1ccc(CC(=O)Nc2c(C(=O)c3ccccc3)oc3ccc(Cl)cc23)cc1OCC

Potency, inconclusive:
Cc1cc(C)nc(SCNC(=O)c2ccc(F)cc2)n1 28.2 µM [inhibitor, single point]
COc1ccccc1C(=O)N/N=C(\C)c1ccc(NC(=O)Cc2ccccc2)cc1 28.2 µM [inhibitor, single point]
CC1CC(C)CN(C(=O)COC(=O)c2c[nH]c3ccccc23)C1 (centres undefined) 17.8 µM [inhibitor, single point]
COc1ccc(C(=O)NC2CCCc3c2cnn3-c2ccc(C)c(C)c2)c(OC)c1OC (centres undefined) 10 µM [inhibitor, partial curve, poor fit]
CCc1nc2ccc(C(=O)NCCC(C)C)cn2c1N(C)Cc1ccc(OC)cc1 10 µM [inhibitor, partial curve, poor fit]
CCc1ccccc1NC(=S)NC1CC2CCCC(C1)N2Cc1cccs1 (centres undefined) 20 µM [inhibitor, single point]
Cn1c(=O)c2c(nc(N/N=C/c3cccs3)n2Cc2ccc(Br)cc2)n(C)c1=O 28.2 µM [inhibitor, single point]
CC1CCC(NC(=O)c2ccc3snnc3c2)CC1 (centres undefined) 12.6 µM [inhibitor, partial curve, poor fit]
O=C(/C=C/NCc1cccnc1)c1ccc(Br)cc1 11.2 µM [inhibitor, partial curve, poor fit]
O=C(Nc1ccccc1Cl)Nc1cccc2cccnc12 28.2 µM [inhibitor, single point]
CCOC(=O)C(CCCOc1ccccc1)C(=O)OCC 10 µM [inhibitor, partial curve, poor fit]
Cc1ccc(S(=O)(=O)c2cc(Nc3ccccc3)ccc2O)cc1 22.4 µM [inhibitor, single point]
O=C(CC(c1ccccc1)c1cc(Br)ccc1O)NCCCN1CCOCC1 (centres undefined) 8.91 µM [inhibitor, partial curve, poor fit]
CC(C)(C)c1ccc(C(=O)NNc2cc(N3CCOCC3)nc(N3CCOCC3)n2)cc1 11.2 µM [inhibitor, single point]
CC(C)C(=O)Nc1ccc(N2CCOCC2)c(S(=O)(=O)Nc2ccccc2Cl)c1 8.91 µM [inhibitor, single point]
CCOC(=O)[C@]12CCC=C1N(Cc1ccc3c(c1)OCO3)C(=O)[C@H](CC(=O)NCCCCc1ccccc1)C2 10 µM [inhibitor, partial curve, poor fit]
O=C(N1CCN(Cc2ccccc2)CC1)C(Cl)(Cl)Cl 28.2 µM [inhibitor, single point]
Cc1ccc(C)c(C(=O)O/N=C(\N)c2ccc(Br)cc2)c1 28.2 µM [inhibitor, single point]
O=C1NC(Cc2ccccc2)c2nc3ccccc3c(=O)n2-c2cc3ccccc3cc21 (centres undefined) 8.91 µM [inhibitor, partial curve, poor fit]
CCCCCNC(=O)c1cn(CC)c2cc(N3CCN(C)CC3)c(F)cc2c1=O 7.94 µM [inhibitor, partial curve, poor fit]
Cc1cccc(C(=O)NNC(=O)c2cc3cc4ccccc4nc3s2)c1 3.55 µM [inhibitor, partial curve, poor fit]
COc1ccc2c(c1)OC[C@H]1[C@H]2N2C(=O)c3ccccc3NC(=O)[C@@]2(C)[C@H]1c1ccccc1 22.4 µM [inhibitor, single point]
CS(=O)(=O)c1ccc(Nc2nc(C(N)Cc3ccc(Cl)cc3)cs2)cc1 (centres undefined) 11.2 µM [inhibitor, partial curve]
COc1ccc(OC)c(C2C=C(c3ccc(C)c(C)c3)Nc3nnnn32)c1 (centres undefined) 3.98 µM [inhibitor, partial curve]
C[C@@H]1CC[C@H]2C(=O)N3[C@@H](CC[C@@H](C)[C@@H]3c3ccc(Br)cc3)C(=O)N2[C@H]1c1ccc(Br)cc1 25.1 µM [inhibitor, single point]
CN(C)/C=C\C(=C/C(=O)C(F)(F)F)Nc1ccccc1Oc1ccccc1 10 µM [inhibitor, partial curve, poor fit]
COc1ccc(C(=O)Nn2cnc3scc(-c4cccs4)c3c2=O)c(O)c1 28.2 µM [inhibitor, single point]
CC1CN(CCCCSc2ccc(Cl)cc2)CC(C)O1 (centres undefined) 10 µM [inhibitor, partial curve, poor fit]
CCN=C1Sc2nc3ccc(OCC)cc3cc2CN1CCOC 28.2 µM [inhibitor, single point]
O=[N+]([O-])c1ccc(S(=O)(=O)NCC(c2cccnc2)N2CCc3ccccc32)cc1 (centres undefined) 28.2 µM [inhibitor, single point]
CN1CCN(c2ccc(NC(=O)c3ccc(Br)o3)cc2)CC1 10 µM [inhibitor, single point]
CC1Sc2ccc(C(=O)NCc3ccccn3)cc2NC1=O (centres undefined) 0.794 µM [inhibitor, full curve, poor fit]
CCCS(=O)(=O)c1c(S(=O)(=O)CCC)c2c(N)cccn2c1C(=O)c1ccc(F)cc1 7.94 µM [inhibitor, partial curve, poor fit]
COc1ccc(CCC(=O)NCCS(=O)(=O)N2CCN(c3ccccc3F)CC2)cc1 28.2 µM [inhibitor, single point]
O=[N+]([O-])c1ccc(-c2nc(C(Cl)Cl)c3ccccc3n2)cc1 2.51 µM [inhibitor, partial curve, poor fit]
Cc1ccc(C(C(=O)NC(C)(C)C)N(Cc2ccco2)C(=O)CCC(=O)Nc2ccccn2)cc1 (centres undefined) 12.6 µM [inhibitor, single point]
O=C(NC1CCN(C(=S)Nc2ccc(Cl)cc2)CC1)c1ccco1 7.94 µM [inhibitor, single point]
Cc1ccc(S(=O)(=O)Nc2ccc(Cl)cc2C(=O)c2ccccc2)cc1 11.2 µM [inhibitor, single point]
CN(CC(=O)Nc1ccc(F)cc1)C(=O)c1cccc(S(=O)(=O)N2CCN(c3ccccc3)CC2)c1 10 µM [inhibitor, single point]
Cc1ccc(C(=O)Nc2cccc(C(F)(F)F)c2)cc1NC(=O)c1ccno1 11.2 µM [inhibitor, partial curve, poor fit]
CCc1ccc(N2C(=O)CN(CC(=O)OC)C2=S)cc1 4.47 µM [inhibitor, full curve, poor fit]
O=C(c1cccc(F)c1)N1CCN(c2ccc([N+](=O)[O-])c(N3CCCCC3)c2)CC1 28.2 µM [inhibitor, single point]
O=C(CNC1CCCCC1)Nc1cccc(C(F)(F)F)c1 12.6 µM [inhibitor, single point]
C/C(=N\Nc1ccccn1)c1cccs1 28.2 µM [inhibitor, single point]
COc1ccccc1-c1cc(C(F)(F)F)nc(N2CCCCC2)n1 28.2 µM [inhibitor, single point]
O=C(N/N=C/c1ccc(OC(F)F)cc1OC(F)F)c1ccc(Br)cc1 28.2 µM [inhibitor, single point]
CC(=O)NC(c1cccs1)c1cc([N+](=O)[O-])c2cccnc2c1O (centres undefined) 28.2 µM [inhibitor, single point]
Cc1ccccc1OCCC(=O)N1CCN(S(=O)(=O)c2ccc(Cl)cc2)CC1 14.1 µM [inhibitor, single point]

Activity change, negative = inhibition, inconclusive:
Cc1ccc(C(=O)Nc2cccc(C(F)(F)F)c2)cc1NC(=O)c1ccno1 -40.8% [inhibitor]
